{
  "source": "the supplement of paper PMC8728848",
  "assay_in_all_cases": "glycan array binding signal (z-score within array); higher = stronger binding",
  "details_in_all_cases": "glycan notation: IUPAC condensed, linker removed",
  "key": {"[1]": {"target": "Neu5Ac(a2-6)Gal(b1-4)GlcNAc(b1-3)Gal(b1-4)GlcNAc(b1-3)GalNAc", "in_short": "(§1)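 Arrays were curated from the Consortium for Functional Glycomics database, 3228 in total, and kept only where the protein sequence was available. Binding is expressed as a within-array Z-score. This score was averaged across arrays of the same protein sequence at different concentrations or buffers and across linkers, and negative values can be read as non-binding.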"}, "[2]": {"target": "Neu5Ac(a2-6)Gal(b1-4)GlcNAc(b1-3)Gal(b1-4)GlcNAc(b1-3)[Neu5Ac(a2-6)Gal(b1-4)GlcNAc(b1-3)Gal(b1-4)GlcNAc(b1-6)]GalNAc", "in_short": "as §1"}, "[3]": {"target": "Neu5Ac(a2-6)Gal(b1-4)GlcNAc(b1-3)Gal(b1-4)GlcNAc(b1-6)[Gal(b1-3)]GalNAc", "in_short": "as §1"}, "[4]": {"target": "Neu5Ac(a2-6)Gal(b1-4)GlcNAc(b1-3)Gal(b1-4)[Fuc(a1-3)]GlcNAc(b1-3)Gal(b1-4)[Fuc(a1-3)]GlcNAc", "in_short": "as §1"}, "[5]": {"target": "Neu5Ac(a2-6)Gal(b1-4)GlcNAc(b1-3)GalNAc", "in_short": "as §1"}, "[6]": {"target": "Neu5Ac(a2-6)Gal(b1-4)GlcNAc(b1-3)[Neu5Ac(a2-6)Gal(b1-4)GlcNAc(b1-6)]GalNAc", "in_short": "as §1"}, "[7]": {"target": "Neu5Ac(a2-6)Gal(b1-4)GlcNAc(b1-6)GalNAc", "in_short": "as §1"}, "[8]": {"target": "Neu5Ac(a2-6)Gal(b1-4)GlcNAc(b1-6)[Gal(b1-3)GlcNAc(b1-3)]Gal(b1-4)Glc", "in_short": "as §1"}, "[9]": {"target": "Neu5Ac(a2-6)Gal(b1-4)GlcNAc(b1-6)[Gal(b1-3)]GalNAc", "in_short": "as §1"}, "[10]": {"target": "Neu5Ac(a2-6)Gal(b1-4)GlcNAc6S", "in_short": "as §1"}, "[11]": {"target": "Neu5Ac(a2-6)GalNAc", "in_short": "as §1"}, "[12]": {"target": "Neu5Ac(a2-6)GalNAc(b1-4)GlcNAc", "in_short": "as §1"}, "[13]": {"target": "Neu5Ac(a2-6)GalNAc(b1-4)GlcNAc6S", "in_short": "as §1"}, "[14]": {"target": "Neu5Ac(a2-6)GlcNAc(b1-4)GlcNAc", "in_short": "as §1"}, "[15]": {"target": "Neu5Ac(a2-6)GlcNAc(b1-4)GlcNAc(b1-4)GlcNAc", "in_short": "as §1"}, "[16]": {"target": "Neu5Ac(a2-8)Neu5Ac", "in_short": "as §1"}, "[17]": {"target": "Neu5Ac(a2-8)Neu5Ac(a2-3)Gal(b1-3)GalNAc(b1-4)[Neu5Ac(a2-3)]Gal(b1-4)Glc", "in_short": "as §1"}, "[18]": {"target": "Neu5Ac(a2-8)Neu5Ac(a2-3)Gal(b1-3)GalNAc(b1-4)[Neu5Ac(a2-8)Neu5Ac(a2-3)]Gal(b1-4)Glc", "in_short": "as §1"}, "[19]": {"target": "Neu5Ac(a2-8)Neu5Ac(a2-3)Gal(b1-4)Glc", "in_short": "as §1"}, "[20]": {"target": "Neu5Ac(a2-8)Neu5Ac(a2-3)Gal(b1-4)GlcNAc", "in_short": "as §1"}, "[21]": {"target": "Neu5Ac(a2-8)Neu5Ac(a2-3)[Gal(b1-3)GalNAc(b1-4)]Gal(b1-4)Glc", "in_short": "as §1"}, "[22]": {"target": "Neu5Ac(a2-8)Neu5Ac(a2-3)[GalNAc(b1-4)]Gal(b1-4)Glc", "in_short": "as §1"}, "[23]": {"target": "Neu5Ac(a2-8)Neu5Ac(a2-8)Neu5Ac", "in_short": "as §1"}, "[24]": {"target": "Neu5Ac(a2-8)Neu5Ac(a2-8)Neu5Ac(a2-3)Gal(b1-4)Glc", "in_short": "as §1"}, "[25]": {"target": "Neu5Ac(a2-8)Neu5Ac(a2-8)Neu5Ac(a2-3)[Gal(b1-3)GalNAc(b1-4)]Gal(b1-4)Glc", "in_short": "as §1"}, "[26]": {"target": "Neu5Ac(a2-8)Neu5Ac(a2-8)Neu5Ac(a2-3)[GalNAc(b1-4)]Gal(b1-4)Glc", "in_short": "as §1"}, "[27]": {"target": "Neu5Ac(a2-8)Neu5Ac(a2-8)Neu5Ac(a2-8)Neu5Ac(a2-3)[GalNAc(b1-4)]Gal(b1-4)Glc", "in_short": "as §1"}, "[28]": {"target": "Neu5Ac(a2-8)Neu5Gc(a2-3)Gal(b1-4)GlcNAc", "in_short": "as §1"}, "[29]": {"target": "Neu5Ac(b2-6)Gal(b1-4)GlcNAc", "in_short": "as §1"}, "[30]": {"target": "Neu5Ac(b2-6)GalNAc", "in_short": "as §1"}, "[31]": {"target": "Neu5Ac9Ac(a2-3)Gal(b1-3)GlcNAc", "in_short": "as §1"}, "[32]": {"target": "Neu5Ac9Ac(a2-3)Gal(b1-4)GlcNAc", "in_short": "as §1"}, "[33]": {"target": "Neu5Ac9Ac(a2-6)Gal(b1-4)GlcNAc", "in_short": "as §1"}, "[34]": {"target": "Neu5Gc(a2-3)Gal(b1-3)GlcNAc", "in_short": "as §1"}, "[35]": {"target": "Neu5Gc(a2-3)Gal(b1-3)[Fuc(a1-4)]GlcNAc", "in_short": "as §1"}, "[36]": {"target": "Neu5Gc(a2-3)Gal(b1-4)Glc", "in_short": "as §1"}, "[37]": {"target": "Neu5Gc(a2-3)Gal(b1-4)GlcNAc", "in_short": "as §1"}, "[38]": {"target": "Neu5Gc(a2-3)Gal(b1-4)GlcNAc(b1-3)Gal(b1-4)GlcNAc(b1-2)Man(a1-3)[Neu5Gc(a2-3)Gal(b1-4)GlcNAc(b1-3)Gal(b1-4)GlcNAc(b1-2)Man(a1-6)]Man(b1-4)GlcNAc(b1-4)GlcNAc", "in_short": "as §1"}, "[39]": {"target": "Neu5Gc(a2-3)Gal(b1-4)[Fuc(a1-3)]GlcNAc", "in_short": "as §1"}, "[40]": {"target": "Neu5Gc(a2-6)Gal(b1-4)GlcNAc", "in_short": "as §1"}, "[41]": {"target": "Neu5Gc(a2-6)GalNAc", "in_short": "as §1"}, "[42]": {"target": "Neu5Gc(a2-8)Neu5Ac(a2-3)Gal(b1-4)GlcNAc", "in_short": "as §1"}, "[43]": {"target": "Neu5Gc(a2-8)Neu5Gc(a2-3)Gal(b1-4)GlcNAc", "in_short": "as §1"}, "[44]": {"target": "Neu5Gc(a2-8)Neu5Gc(a2-3)Gal(b1-4)GlcNAc(b1-3)Gal(b1-4)GlcNAc", "in_short": "as §1"}, "[45]": {"target": "Neu5Gc(a2-8)Neu5Gc(a2-6)Gal(b1-4)GlcNAc", "in_short": "as §1"}},
  "note": "This is one part of the list.",
  "data": [
    {"binder": "Clrb (Mus musculus) (protein) ITGATKTEQIPVNKTYAACPQNWIGVENKCFYFSEYPSNWTFAQAFCMAQEAQLARFDNQDELNFLMRYKANFDSWIGLHRESSEHPWKWTDNTEYNNTIPIRGEERFAYLNNNGISSTRIYSLRMWICSKLNSYSLHCQTPFFPSGTKHHHHHHHHG", "values": [
      {"measurement": "glycan array binding signal (z-score)", "setting": "[1]", "result": -0.628},
      {"measurement": "glycan array binding signal (z-score)", "setting": "[2]", "result": -0.514},
      {"measurement": "glycan array binding signal (z-score)", "setting": "[3]", "result": -0.197},
      {"measurement": "glycan array binding signal (z-score)", "setting": "[4]", "result": -0.211},
      {"measurement": "glycan array binding signal (z-score)", "setting": "[5]", "result": -0.515},
      {"measurement": "glycan array binding signal (z-score)", "setting": "[6]", "result": -0.479},
      {"measurement": "glycan array binding signal (z-score)", "setting": "[7]", "result": -0.437},
      {"measurement": "glycan array binding signal (z-score)", "setting": "[8]", "result": -0.442},
      {"measurement": "glycan array binding signal (z-score)", "setting": "[9]", "result": -0.367},
      {"measurement": "glycan array binding signal (z-score)", "setting": "[10]", "result": -0.069},
      {"measurement": "glycan array binding signal (z-score)", "setting": "[11]", "result": -0.508},
      {"measurement": "glycan array binding signal (z-score)", "setting": "[12]", "result": 4.69},
      {"measurement": "glycan array binding signal (z-score)", "setting": "[13]", "result": 0.022},
      {"measurement": "glycan array binding signal (z-score)", "setting": "[14]", "result": 0.909},
      {"measurement": "glycan array binding signal (z-score)", "setting": "[15]", "result": 1.68},
      {"measurement": "glycan array binding signal (z-score)", "setting": "[16]", "result": -0.394},
      {"measurement": "glycan array binding signal (z-score)", "setting": "[17]", "result": 0.234},
      {"measurement": "glycan array binding signal (z-score)", "setting": "[18]", "result": -0.203},
      {"measurement": "glycan array binding signal (z-score)", "setting": "[19]", "result": -0.322},
      {"measurement": "glycan array binding signal (z-score)", "setting": "[20]", "result": -0.297},
      {"measurement": "glycan array binding signal (z-score)", "setting": "[21]", "result": -0.261},
      {"measurement": "glycan array binding signal (z-score)", "setting": "[22]", "result": -0.312},
      {"measurement": "glycan array binding signal (z-score)", "setting": "[23]", "result": -0.334},
      {"measurement": "glycan array binding signal (z-score)", "setting": "[24]", "result": -0.43},
      {"measurement": "glycan array binding signal (z-score)", "setting": "[25]", "result": -0.421},
      {"measurement": "glycan array binding signal (z-score)", "setting": "[26]", "result": -0.358},
      {"measurement": "glycan array binding signal (z-score)", "setting": "[27]", "result": -0.449},
      {"measurement": "glycan array binding signal (z-score)", "setting": "[28]", "result": -0.465},
      {"measurement": "glycan array binding signal (z-score)", "setting": "[29]", "result": -0.294},
      {"measurement": "glycan array binding signal (z-score)", "setting": "[30]", "result": 0.034},
      {"measurement": "glycan array binding signal (z-score)", "setting": "[31]", "result": -0.221},
      {"measurement": "glycan array binding signal (z-score)", "setting": "[32]", "result": -0.34},
      {"measurement": "glycan array binding signal (z-score)", "setting": "[33]", "result": -0.332},
      {"measurement": "glycan array binding signal (z-score)", "setting": "[34]", "result": -0.384},
      {"measurement": "glycan array binding signal (z-score)", "setting": "[35]", "result": -0.2},
      {"measurement": "glycan array binding signal (z-score)", "setting": "[36]", "result": -0.311},
      {"measurement": "glycan array binding signal (z-score)", "setting": "[37]", "result": -0.419},
      {"measurement": "glycan array binding signal (z-score)", "setting": "[38]", "result": -0.348},
      {"measurement": "glycan array binding signal (z-score)", "setting": "[39]", "result": -0.434},
      {"measurement": "glycan array binding signal (z-score)", "setting": "[40]", "result": -0.137},
      {"measurement": "glycan array binding signal (z-score)", "setting": "[41]", "result": -0.377},
      {"measurement": "glycan array binding signal (z-score)", "setting": "[42]", "result": -0.469},
      {"measurement": "glycan array binding signal (z-score)", "setting": "[43]", "result": -0.227},
      {"measurement": "glycan array binding signal (z-score)", "setting": "[44]", "result": -0.287},
      {"measurement": "glycan array binding signal (z-score)", "setting": "[45]", "result": -0.334}
    ]}
  ]
}
